From the supplement of paper PMC3334620
Whole data set: some 33,000 sequences, median “E-score (-0.5 to 0.5)” near -0.016, cut for the highest 2% near 0.32. The list shows a part of the results.

These sequences were tested against T1, Stp1 (UniProt B3LFK1) (assay: PBM E-score (8-mer binding enrichment) (E-score (-0.5 to 0.5)); higher = stronger / more preferred TF binding; most listed sequences are background and not binding sites). Conditions: protein concentration: 200 nM; construct: GST-full length.
T1 sequence: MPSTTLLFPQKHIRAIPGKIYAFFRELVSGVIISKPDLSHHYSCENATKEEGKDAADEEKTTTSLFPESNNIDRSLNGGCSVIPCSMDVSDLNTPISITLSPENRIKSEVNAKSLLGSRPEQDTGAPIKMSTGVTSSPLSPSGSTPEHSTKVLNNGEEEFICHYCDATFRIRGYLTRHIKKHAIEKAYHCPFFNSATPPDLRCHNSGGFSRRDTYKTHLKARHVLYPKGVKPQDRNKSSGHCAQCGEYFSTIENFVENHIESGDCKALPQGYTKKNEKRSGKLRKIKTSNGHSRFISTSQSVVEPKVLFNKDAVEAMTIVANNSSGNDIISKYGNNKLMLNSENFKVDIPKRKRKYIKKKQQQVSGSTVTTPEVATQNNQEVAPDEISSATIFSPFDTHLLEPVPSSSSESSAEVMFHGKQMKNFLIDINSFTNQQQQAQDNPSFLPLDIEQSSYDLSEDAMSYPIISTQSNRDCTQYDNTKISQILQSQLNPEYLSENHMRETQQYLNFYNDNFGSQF
Protocol: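 Universal 'all 10-mer' protein binding microarrays (Agilent AMADID 015681) probed with GST-tagged S. cerevisiae TFs (full-length or DBD) made by in vitro transcription/translation (PURExpress), about 100-200 nM. Bound TF was detected with fluorescent anti-GST. Each ungapped 8-mer (which stands for itself and its reverse complement) is scored by the PBM enrichment score (E-score), a modified Wilcoxon-Mann-Whitney statistic from -0.5 to +0.5, computed with the Universal PBM Analysis Suite. Scale: above 0.35 generally sequence-specific binding.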
CTCAATTC was tested, and the “PBM E-score” value was 0.0345.
CTCACGAG was tested, and the “PBM E-score” value was -0.111.
In the case of AGAGGTTC, the “PBM E-score” value is reported as -0.0312.
CGAGTTAC was tested, and the “PBM E-score” value was 0.11.
In the case of GCGAAACA, the “PBM E-score” value is reported as 0.122.
With ACCATTGC the “PBM E-score” value was -0.0584.
In the case of GGTGTTAA, the “PBM E-score” value is reported as 0.0826.
With GCCGGTCA the “PBM E-score” value was -0.102.
In the case of CGTTGTAA, the “PBM E-score” value is reported as -0.0631.
For ACCCTGGC, the “PBM E-score” value was -0.233.
For GTAAGATA, the “PBM E-score” value was 0.21.
CACATTGA was tested, and the “PBM E-score” value was 0.134.
ATATGGTA was tested, and the “PBM E-score” value was 0.0227.
AACGTAGT was tested, and the “PBM E-score” value was -0.00602.
For GCTAAGCA, the “PBM E-score” value was 0.0427.
With GGACGAAC the “PBM E-score” value was 0.0901.
In the case of CCGAATAC, the “PBM E-score” value is reported as 0.173.
With AAATAATG the “PBM E-score” value was 0.253.
For CCAAGCAC, the “PBM E-score” value was 0.0645.
With GCCCGAGA the “PBM E-score” value was 0.0368.
With CAACTTTA the “PBM E-score” value was 0.0616.
With GAAACGGC the “PBM E-score” value was 0.462.
ACTACATC was tested, and the “PBM E-score” value was -0.0415.
For CTCGTCAC, the “PBM E-score” value was 0.0658.
In the case of ATATACAA, the “PBM E-score” value is reported as 0.232.
GATCACAA was tested, and the “PBM E-score” value was 0.0964.
For TATCAAAA, the “PBM E-score” value was 0.0528.
CCGAGAGC was tested, and the “PBM E-score” value was -0.267.
In the case of CTAACCTC, the “PBM E-score” value is reported as -0.236.
For GAGGCCCC, the “PBM E-score” value was -0.125.
AGGCCCAT was tested, and the “PBM E-score” value was -0.277.
AAAGGAAC was tested, and the “PBM E-score” value was 0.0797.
In the case of GCGCCCAA, the “PBM E-score” value is reported as 0.119.
For TCTATAGA, the “PBM E-score” value was -0.185.
GCGAAACC was tested, and the “PBM E-score” value was 0.132.
For ACGGGTAA, the “PBM E-score” value was 0.0689.
For CAGCTTGG, the “PBM E-score” value was 0.026.
GCATGGCA was tested, and the “PBM E-score” value was 0.375.
With CACCGCAC the “PBM E-score” value was 0.0298.
For AAAAGCAG, the “PBM E-score” value was -0.0815.
In the case of GGTGATAC, the “PBM E-score” value is reported as -0.158.
In the case of TATCGTAA, the “PBM E-score” value is reported as 0.134.
In the case of ACCGCGTC, the “PBM E-score” value is reported as 0.117.
For AAAGGTTA, the “PBM E-score” value was -0.132.
ACCGCCGC was tested, and the “PBM E-score” value was 0.389.
ATTAGCAA was tested, and the “PBM E-score” value was 0.116.
TATCTTAA was tested, and the “PBM E-score” value was 0.133.
ATTATCAC was tested, and the “PBM E-score” value was 0.153.
In the case of AATACGTA, the “PBM E-score” value is reported as 0.124.
For CCAGATGA, the “PBM E-score” value was -0.0204.
For TAGGTCCA, the “PBM E-score” value was 0.0253.
For ACGGGAGC, the “PBM E-score” value was 0.00476.
In the case of CACAGCAG, the “PBM E-score” value is reported as 0.0685.
With ATAAGGAC the “PBM E-score” value was 0.114.
CAACGGTA was tested, and the “PBM E-score” value was -0.266.
With ACACGTGC the “PBM E-score” value was 0.197.
CTGCGTAC was tested, and the “PBM E-score” value was 0.00614.
In the case of CTGGCACC, the “PBM E-score” value is reported as -0.0921.
CCCAAGCC was tested, and the “PBM E-score” value was 0.0564.
AATCGATT was tested, and the “PBM E-score” value was 0.0938.
CAGCCACA was tested, and the “PBM E-score” value was 0.161.
For GGGGGCGA, the “PBM E-score” value was -0.303.
In the case of CATGAACG, the “PBM E-score” value is reported as 0.0341.
For AGTCTCAC, the “PBM E-score” value was 0.027.
In the case of GGCCTTTA, the “PBM E-score” value is reported as -0.0181.
For GTGGCCAA, the “PBM E-score” value was -0.126.
AACCACAT was tested, and the “PBM E-score” value was 0.114.
For GAAGTAGC, the “PBM E-score” value was -0.145.
In the case of GATGGGGA, the “PBM E-score” value is reported as -0.217.
In the case of CGCTAGGA, the “PBM E-score” value is reported as -0.0128.
In the case of ACCTGCGT, the “PBM E-score” value is reported as -0.0439.
In the case of ATCAGTCC, the “PBM E-score” value is reported as -0.294.
In the case of GGGTTGAA, the “PBM E-score” value is reported as -0.173.
With CGCATACG the “PBM E-score” value was 0.127.
With CCTTAAGG the “PBM E-score” value was 0.173.
For ACTTGATG, the “PBM E-score” value was 0.034.
ACAAAATC was tested, and the “PBM E-score” value was 0.0644.
For CGAGTAGA, the “PBM E-score” value was -0.0226.
For TAAAGGCA, the “PBM E-score” value was 0.237.
With ACAAAAGT the “PBM E-score” value was 0.0775.
For AAGGGACG, the “PBM E-score” value was -0.071.
In the case of GGGAATCA, the “PBM E-score” value is reported as -0.0809.
CAAAGCCG was tested, and the “PBM E-score” value was 0.316.
CCAGGTAA was tested, and the “PBM E-score” value was -0.00283.
In the case of AACTAATA, the “PBM E-score” value is reported as 0.222.
For CCGTGTCC, the “PBM E-score” value was 0.297.
ACGTATCA was tested, and the “PBM E-score” value was 0.0537.
With CCAGGTAC the “PBM E-score” value was -0.0869.
For AACCTGCC, the “PBM E-score” value was -0.0866.
CGGAGAAA was tested, and the “PBM E-score” value was -0.0217.
For CAGCAGAC, the “PBM E-score” value was 0.0423.
For CAGCGCCG, the “PBM E-score” value was 0.446.
CCCCTTCG was tested, and the “PBM E-score” value was -0.161.
GCACATAA was tested, and the “PBM E-score” value was 0.0278.
